Data reported in article PMC4336329 (PLoS ONE, 2015).
In all, about 310,000 compounds went through this assay and about 2,200 (0.71%) showed an effect of 50% or more. Effects have a minus sign here. Some of the results follow.

The compounds below were run against human ether-à-go-go-related gene (hERG) potassium channel (human, UniProt Q12809) (assay: primary screen, population patch clamp on CHO cells stably expressing hERG).
human ether-à-go-go-related gene (hERG) potassium channel, sequence (Q12809 whole entry, looked up): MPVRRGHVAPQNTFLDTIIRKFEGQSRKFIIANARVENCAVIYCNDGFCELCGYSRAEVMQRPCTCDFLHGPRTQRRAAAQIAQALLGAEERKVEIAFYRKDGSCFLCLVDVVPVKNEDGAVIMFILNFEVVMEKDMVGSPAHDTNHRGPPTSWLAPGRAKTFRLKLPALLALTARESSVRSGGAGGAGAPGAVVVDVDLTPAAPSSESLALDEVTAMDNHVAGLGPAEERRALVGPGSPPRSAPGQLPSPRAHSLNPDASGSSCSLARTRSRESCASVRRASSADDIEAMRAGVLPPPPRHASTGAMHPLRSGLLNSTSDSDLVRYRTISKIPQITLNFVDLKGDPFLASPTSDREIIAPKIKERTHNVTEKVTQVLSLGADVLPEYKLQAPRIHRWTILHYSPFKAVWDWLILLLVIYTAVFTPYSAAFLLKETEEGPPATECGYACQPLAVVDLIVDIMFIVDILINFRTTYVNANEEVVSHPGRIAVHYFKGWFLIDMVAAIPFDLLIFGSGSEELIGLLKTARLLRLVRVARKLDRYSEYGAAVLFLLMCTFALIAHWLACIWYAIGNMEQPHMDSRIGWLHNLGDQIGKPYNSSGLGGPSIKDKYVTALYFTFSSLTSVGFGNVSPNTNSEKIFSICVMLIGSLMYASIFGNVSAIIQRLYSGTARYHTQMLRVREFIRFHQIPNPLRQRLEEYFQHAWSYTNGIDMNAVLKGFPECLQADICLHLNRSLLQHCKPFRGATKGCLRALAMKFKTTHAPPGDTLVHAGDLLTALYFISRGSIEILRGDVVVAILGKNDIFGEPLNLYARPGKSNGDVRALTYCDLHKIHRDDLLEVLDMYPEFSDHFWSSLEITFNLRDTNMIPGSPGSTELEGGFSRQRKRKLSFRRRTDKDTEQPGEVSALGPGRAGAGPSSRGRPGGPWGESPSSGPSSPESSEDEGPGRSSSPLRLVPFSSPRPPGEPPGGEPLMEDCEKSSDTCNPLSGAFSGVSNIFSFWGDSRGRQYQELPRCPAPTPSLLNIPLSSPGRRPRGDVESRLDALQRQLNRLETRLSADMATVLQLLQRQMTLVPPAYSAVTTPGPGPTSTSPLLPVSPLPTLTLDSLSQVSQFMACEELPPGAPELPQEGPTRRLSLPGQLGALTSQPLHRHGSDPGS

Compound | hERG current change (%, negative = inhibition) at 1uM [%]
C=CCOc1cccc(C2C(C(=O)c3ccco3)=C(O)C(=O)N2Cc2ccncc2)c1 (stereo not drawn) | 23.9
CC(=O)Nc1cccc(Oc2cc(C#N)c(C#N)cc2N2CCCCCC2)c1 | 8.28
COc1ccccc1-c1nnc(N(C)C(=O)C2CCCO2)s1 (stereo not drawn) | 9.47
N#C/C(=C/c1ccc(CNS(=O)(=O)c2ccccc2)o1)C(=O)NCc1ccccc1 | -2.31
O=C(NCCc1ccccc1)/C(=C\c1ccc([N+](=O)[O-])cc1)NC(=O)c1ccco1 | -59
COc1ccc(NC(=O)c2ccco2)cc1NC(=O)COc1ccccc1 | 11.6
CCn1c(Cc2ccccc2)nnc1SCC(=O)Nc1ccccc1 | 5.8
Cc1ccc(NC(=O)CCNS(=O)(=O)c2ccc3c(c2)CCC(=O)N3)cc1F | 16.1
S=C(Nc1ccccc1)Nc1nc2ccccc2n1CCOc1ccc(Cl)cc1 | 7.29
CC(=O)c1cccc(OC(=O)C2=CC=CN3CCS(=O)(=O)N=C23)c1 | 7.76
COc1ccc(NC(=O)Nc2ccc(C(=O)N3CCOCC3)cc2)cc1 | 9.81
Nc1nonc1C(=O)NCCNC(=O)c1cccc(Cl)c1 | 8.34
CCOc1cc(S(=O)(=O)Nc2ccccn2)ccc1F | 8.64
N#C/C(=C\c1ccccc1)C(=O)Nc1ccccn1 | 7.18
CCN(CC)CCn1c(=S)[nH]c2ccc(Cl)cc2c1=O | -49
CCCCCC1CC(=O)N(Cc2ccccc2)C(=O)N1 (stereo not drawn) | -1.51
COc1ccc(OC)c(NC(=O)Nc2ccc3c(c2)OCO3)c1 | 15.1
CN(C)c1oc(-c2ccccc2F)nc1C#N | 7.02
CCOc1cccc2sc(N(CCCN(C)C)C(=O)c3ccc(S(=O)(=O)N4CCc5ccccc5C4)cc3)nc12.Cl | 10
CN1CCN(c2ccc(C(=O)c3cn(-c4ccc(F)c(Cl)c4)nn3)cc2)CC1 | 13.3
Cc1cc(/C=C(\C#N)C(=O)OCC(=O)NC(=O)NC(C)(C)C)c(C)n1CCC(C)C | 9.54
CCCCCCc1nnc(NC(=O)c2ccco2)s1 | 12.2
Cc1cccc(C)c1OCC(=O)Nc1c(C)nn(C)c1C | 20.2
CC(C)CCn1nnnc1C(C(C)C)N1CCC(C(N)=O)CC1 (stereo not drawn) | 3.94
COC(=O)c1[nH]c(C)c(/C(O)=C2\C(=O)C(=O)N(CCCN3CCOCC3)C2c2ccccn2)c1C (stereo not drawn) | 7.78
COc1ccc(C)cc1-n1nnnc1SCC(=O)c1ccc2c(c1)OCCO2 | 11.3
CN(C)C(=O)N1CCC(C(=O)NCc2ccc(F)cc2)CC1 | 15.6

Compound | hERG current change (%, negative = inhibition) at 1uM [%]
COC(=O)c1ccc(C2/C(=C(/O)c3ccc4c(c3)CC(C)O4)C(=O)C(=O)N2CCN2CCOCC2)cc1 (stereo not drawn) | 12
Nc1c(N(CCC2=CCCCC2)C(=O)COc2ccc(F)cc2)c(=O)[nH]c(=O)n1Cc1ccccc1 | 6.25
Nc1nnc(CC(=O)N/N=C/c2ccc(-c3ccccc3)o2)s1 | 7.35
Cc1ccc(-c2n[nH]c(=S)n2/N=C/c2ccc(C)s2)cc1 | 11.8
COc1ccc(N(CC(=O)Nc2ccc(F)cc2)S(=O)(=O)c2ccccc2[N+](=O)[O-])c(OC)c1 | 4.04
O=C(COc1ccc2c(-c3ccccc3)cc(=O)oc2c1)Nc1ccc(CN2CCOCC2)cc1 | 17.5
O=C(CSc1nnc(-c2ccccc2Br)o1)N1CCc2ccccc2C1 | -1.28
Cc1ccccc1NC(=O)Cn1c(C)nc2ccc(NC(=O)C3CC3)cc2c1=O | 13
CCOc1cc(C(=O)N2CCC(CC3CC(c4ccccc4)=NO3)(C(=O)NCc3ccc(OC)cc3)CC2)cc(OCC)c1OCC (stereo not drawn) | 7.91
O=C(CN1CCCCCC1)N/N=C/c1cccc(Cl)c1Cl | 1.88
COC(=O)Cc1ccc(NC(=S)NCCCO)cc1 | -5.72
CC1(C)CC(NC(=O)C(F)(F)F)CC(C)(C)N1OC(=O)c1ccco1 | -2.4
COCCNC(=S)N1CCN(C(=O)C(=O)Nc2ccc(C(=O)OC)cc2)CC1 | 4.33
CCOC(=O)N1CCN(Cc2nc3cc(NC(=O)c4ccco4)ccc3n2CC)CC1 | 5.74
CCN(CC)c1ccc(NC(=O)c2ccc(NC(=O)C3CCCO3)cc2)c(C)c1 (stereo not drawn) | 11.9
CCN1CCN(C(c2ccccn2)c2c(NC(=O)c3ccccc3)sc(C)c2C)CC1 (stereo not drawn) | -14.2
COc1ccccc1NC(=O)N1CCCC1C(=O)NCc1ccccc1 (stereo not drawn) | 11.3
CCN(CC)CC.Cc1nnc(SCC(=O)NCc2ccc3c(c2)OCO3)[nH]c1=O.Cl | 8.17
CCCCCn1c(CN2CCCCC2CC)nc2c1c(=O)n(C)c(=O)n2C (stereo not drawn) | -7.37
Cc1cc(C)n(-c2nc(NCCO)c3c4c(sc3n2)CCCC4)n1 | 7.55
Cc1ccc(C(=O)C[n+]2ccc(-c3nnc4n3CCC4)cc2)cc1.[Br-] | 14.7
CC(C)(C)NC(=O)CN(Cc1ccc2c(c1)OCO2)C(=O)CCC(=O)Nc1nccs1 | 15.9
Cc1cc(CCN2CCC(=O)NC2=O)ccc1OC(C)C | 6.73
O=C(COC(=O)/C=C/c1cccc([N+](=O)[O-])c1)Nc1ccc(Cl)cn1 | 15.8
C[N+](C)(C)CCCCCC(=O)/C=N/O.[I-] | 9.08
COc1ccc(S(=O)(=O)N2CCCCCC2)cc1NC(=O)CN1C(=O)NC(C)(c2ccccc2)C1=O (stereo not drawn) | 2.06
COc1ccc(-c2cc(C(=O)OCC(=O)N(C)C)c3ccccc3n2)cc1 | 7.99
